The structures appear in SMILES notation. The list shows a part of the results. The main result of the screen is listed elsewhere. These columns were measured beside it and carry no call. Most of these compounds were active or inconclusive in the main read-out, so they are no random draw.

The experiment can be described thus: growth inhibition of WT strain, primary screen, mitochondrial fusion inhibitor project, WT and mutant strains, chemical genetic (AID 1362). Also: tested in S. cerevisiae. Conditions: mitochondrial fusion phenotypic screen, at 10 µM.
Take `O=C(c1ccco1)N1CCN(c2c(-c3ccccc3)c3cc(Cl)ccc3[nH]c2=O)CC1`: the inhibition (commonly the drop in the measured response relative to a control, in per cent) turned out to be 19.3%.
Consider `Fc1ccccc1Sc1ccccc1CNC1=NCCN1`, for which the inhibition was found to be 60.8%.
The result for `COCCNC(=O)CC(NS(=O)(=O)c1ccc(C)cc1)c1ccco1` (stereo not drawn) reads 18.4%; that for `FC(F)(F)c1nc(-c2cccs2)ncc1-c1nnnn1-c1ccc(Cl)cc1`, 51.3%.
For the compound `Fc1ccc(CNC(=S)Nc2cccc(Cl)c2)cc1`, the inhibition came to 14.7%.
To `COc1ccc(C2CC(=O)c3cnc(Nc4cc(C)cc(C)c4)nc3C2)cc1` (stereo not drawn) belongs -8.64%; to `O=C(c1cc(-c2ccccc2)nc2ccccc12)N1CCCc2ccccc21`, -15.7%.
The result for `CC(C)(C)c1ccc(-c2nc(-c3ccncc3)no2)cc1` reads 21.6%.
Consider `CC1Cc2ccccc2N1C(=O)Cn1c(=O)cc(O)c2ccccc21` (stereo not drawn), for which the inhibition is -51.7%.
The result for `C=C(C)C1CC=C(C)/C(=N/NC(=O)COc2ccccc2Cl)C1` (stereo not drawn) reads 13.5%.
To `CC(C)(C)c1ccccc1OCCOCCN1CCCCCC1` belongs 62.7%; to `CN=c1scc(-c2cccs2)n1/N=C/c1ccccc1O`, 35.1%; to `COc1cc(/C=N/N=C(/C(=O)c2ccccc2)c2ccccc2)cc(OC)c1O`, 8.74%.
Regarding `O=C(Nc1ncccc1O)c1cccc(S(=O)(=O)N2CCc3ccccc32)c1`, the inhibition amounted to 63.9%.
The result for `CC1(C)CC(=O)C2=C(C1)N(c1ccc(F)cc1)C(=O)C2(O)C(F)(F)F` (stereo not drawn) reads -7.4%; that for `C/C(CCc1ccc2c(c1)OCO2)=N\N=C1\NC(=O)CC(C(=O)Nc2ccc(Cl)cc2)S1` (stereo not drawn), 31.9%.
To `CCOC(=O)c1sc(NC(=O)/C=C/c2cnn(CC)c2C)c(C(=O)OCC)c1C` belongs -12.6%; to `Cc1nn(C(C)C(=O)NCC2CCCO2)c(=O)c2cc3occc3n12` (stereo not drawn), -15%.
Turning to `Cc1nn(CC(O)CN2c3ccccc3Sc3ccccc32)c(C)c1Br` (stereo not drawn), the inhibition amounted to 53.8%.
As for `CC1(C(=O)OCC(=O)Nc2ccc3ccccc3c2)CC1(Cl)Cl` (stereo not drawn), the inhibition turned out to be 58.4%.
`CCn1c2ccccc2c2cc(CNCc3ccc(OC)cc3OC)ccc21`: the inhibition was determined as 79.7%.
With `Cc1ccc(Cn2ncc3c(N4CCN(c5ccccc5C)CC4)ncnc32)cc1`, the inhibition turned out to be 13.8%.
With `N#Cc1nc(-c2ccco2)oc1NCc1ccc(F)cc1`, the inhibition is 0.69%.
Take `S=c1[nH]nc(-c2ccc3ccccc3n2)n1-c1cc(Cl)cc(Cl)c1`: the inhibition worked out at 9.33%.
As for `Cc1cc(C(C)(C)C)oc1C(=O)N(CC(=O)NC1CCCC1)Cc1ccccc1Cl`, the inhibition came out at 27.8%.
Turning to `NNc1nc2ccc(F)cc2s1`, the inhibition stood at 60.7%.
For the compound `Cc1ccc(Cl)cc1NC(=S)NCCCSC1CCCCC1`, the inhibition is 64%.
Turning to `Cn1c(CCN2CCN(c3ccccc3)CC2)nc2cc(NC(=O)c3ccco3)ccc21`, the inhibition is -6.08%.
The result for `CCN(CCCNC(=O)CCc1nc(-c2ccc(C)cc2)no1)c1cccc(C)c1` reads 16.4%; that for `O=C(c1c(F)c(F)c(F)c(F)c1F)N(Cc1ccccc1)Cc1ccccc1`, 16%; that for `CN1/C(=C\C(=O)COC(=O)c2ccc([N+](=O)[O-])o2)C(C)(C)c2ccccc21`, 91.2%.
To `CC(C)(C)C1CCC(=NOC(=O)c2ccc(F)cc2)CC1` (stereo not drawn) belongs 95.6%.
The result for `CC(/C=N/n1c(-c2ccc(Cl)cc2)n[nH]c1=S)=C\c1ccco1` reads 30.6%; that for `CCOC(=O)c1cc2c(ccn2C)n1Cc1cc(C)ccc1C`, 6.66%; that for `CN(C)CCNC=C(C(=O)Nc1ccc(Cl)cc1Cl)C(=O)Nc1ccc(Cl)cc1Cl`, 95.8%.
As for `Cc1c(OCc2ccccc2)cccc1OCc1ccccc1`, the inhibition was found to be 49.9%.
To `C/C(=N\Nc1cccc(Cl)c1)c1ccc(-n2ccnc2)cc1` belongs 38.8%.
To `C=CCc1ccc(O)c(-c2cc(CC=C)ccc2O)c1` belongs 54.4%; to `CCCCCNCC(=O)Nc1cccc(C(=O)Nc2cccc(C(F)(F)F)c2)c1`, 47.4%.
The result for `COc1ccc(O[C@H]2C=C[C@@H](c3ccccc3)O[C@@H]2CO/N=C(\C)CCN2CCCCc3nc(C)c(C)cc32)cc1` reads 3.15%; that for `Clc1ccc(-c2ccc(/C=N/Nc3cc(N4CCOCC4)nc(N4CCOCC4)n3)o2)cc1`, 21.4%; that for `CN1CCN(S(=O)(=O)c2ccc(N3CCN(C(c4ccccc4)c4ccccc4)CC3)nc2)CC1`, 41.1%.
In the case of `CC1=NN(c2ccccc2)C(=O)/C1=C/c1cc2cc(C)ccc2nc1N1CCCCC1`, the inhibition was 40.4%.
With `Cc1ccc(CSc2nc3c(c(N(C)C)n2)CCCC3)cc1`, the inhibition is 76.6%.
To `O=C1Nc2ccc(F)cc2C12Nc1ccccc1-c1nnc(SCc3ccccc3Cl)nc1O2` (stereo not drawn) belongs 45.2%; to `CN1C(=O)/C(=C/c2cc(N=Nc3ccccc3)ccc2O)SC1=S`, 76.4%.
The result for `NS(=O)(=O)c1ccc(N2N=C(c3ccccc3)CC2c2ccc(F)cc2)cc1` (stereo not drawn) reads 15.7%.
`O=C(Oc1cccc(C(=S)N2CCCCC2)c1)c1ccccc1`: the inhibition stood at 24.3%.
As to `CCc1n[nH]c(=S)n1/N=C/c1ccc(N(C)c2ccccc2)cc1`, the inhibition was 45.1%.
To `O=[N+]([O-])c1ccc(NC(=S)NCCc2ccc(F)cc2)cc1` belongs 79.9%; to `CCn1ccnc1CN(C)Cc1cn(-c2cc(C)ccc2C)nc1-c1ccccc1`, 27.4%; to `O=[N+]([O-])c1cccc(C2NCC(c3ccccc3Cl)c3c2[nH]c2ccccc32)c1` (stereo not drawn), 35.9%.
Take `CCCCCCCC[n+]1cccc2c3ccccc3ccc21`: the inhibition came to 66.8%.
To `Cc1ccccc1NC1=C(Cl)C(=O)OC1OC(=O)c1ccccc1C` (stereo not drawn) belongs 39.4%; to `Cc1ccccc1NC(=S)NCCSc1ccc(Cl)cc1`, 70.9%; to `CC(C)C1COC(c2cccn2Cc2ccccc2Cl)=N1` (stereo not drawn), 26.9%.
The result for `O=c1cc(N2CCCCC2)c(-c2ccccc2)nn1Cc1ccc(F)cc1` reads 6.49%; that for `Cc1cc(C)n(CC(O)Cn2c3ccc(Cl)cc3c3cc(Cl)ccc32)c(=O)n1` (stereo not drawn), 20.9%.
The result for `CCN(CC)c1ccc(C(=S)NCc2ccccc2)cc1` reads 42.7%.
For `Cc1ccc2c(c1)c1c(n2CC(O)Cn2nc(C)c(Br)c2C)CCCC1` (stereo not drawn), the inhibition is 21.7%.
On to `Cc1ccccc1C(=O)c1cccn1CC(=O)NCCN1CCN(c2cccc(C)c2C)CC1`, for which the inhibition came to 49.2%.
As to `COc1ccccc1C(=O)n1nc(-c2ccccc2)nc1NCc1ccco1`, the inhibition came out at 76.3%.
In the case of `c1ccc(-c2nc(NCc3cccnc3)c3oc4ccccc4c3n2)cc1`, the inhibition turned out to be 67.4%.
The result for `C=CC[n+]1c(-c2ccc(Cl)cc2Cl)csc1Nc1ccc(NC(C)=O)cc1` reads 83.3%; that for `Cc1ccc(C(c2nnnn2CC2CCCO2)N2CCN(c3cccc(C)c3C)CC2)cc1` (stereo not drawn), 26.3%; that for `COc1cccc(C(=O)O/N=C(\N)Cc2ccc(Cl)cc2)c1`, 50%.
`Cc1ccc(S(=O)(=O)N2CCN(c3ccnc4cc(Cl)ccc34)CC2)cc1`: the inhibition came to 29.4%.
As to `O=C1CSC(c2ccc(F)cc2)N1c1nc2ccccc2s1` (stereo not drawn), the inhibition worked out at 31.1%.

The record behind these values is PubChem BioAssay AID1362 (SRMLSC, 2008).
